Laboratory results published in the RNAGym collection of RNA variant scans (doi:10.7554/elife.90254).
Read counts are not given, so values of variants with three or more changes are uncertain.

B1: LINE1-full (parent)
chain: UACGUAGGUGGUUUUCCCCUGAUAGUGCUAAGGGGGCCUGGAAGUUUGGACUGGGCAGAGCUCAACACAGCGUGGCAAAGUGGCUGUGGCUAGACUGCCUCUCUGGAUUCCUCGUCACUCAGCAGGGCAUCUCUGAGAGAAAUGCC

Variants of: B1
Experiment: self-cleavage, relative activity (ratio to wild type); higher = more cleavage; in vitro, sequencing; the parent is a self-cleaving ribozyme

Variant | self-cleavage
UACGUAGGUGGUUUUCCCCUGAUAGUGCUAAGGGGGCCUGGAAGUUUGGGCUGGGCAGAGCUCAACACAGCGUGGCAAAGUGGUUGUGGCUAGACUGCCUCUCUGGAUUCCUCGUCACUCAGCAGGGCAUCCCUGAGAGAAAUGCC [A50G C84U U132C] | 0.16
UACGUAGGUGGUUUUCCCCUGAUAGUGCUAAGGGGGCCUGGAAGUUUGGGCUGGGCAGAGCUCAACACGGCGUGGCAAAGUGGCUGUGGCUAGACUGCCUCUCUGGAUUCCUCGUCACCCAGCAGGGCAUCUCUGAGAGAAAUGCC [A50G A69G U119C] | 0
UACGUAGGUGGUUUUCCCCUGAUAGUGCUAAGGGGGCCUGGAAGUUUGGGCUGGGCAGAGCUCAACACAGCGUGGCUAAGUUGCUGUGGCUAGGCUGCCUCUCUGGAUUCCUCGUCACUCAGCAGGGCAUCUCUGAGAGAAAUGCC [A50G A77U G82U A94G] | 0.12
UACGUAGGUGGUUUUCCCCUGAUAGUGCUAAGGGGGCCUGGAAGUUUGGGCUGGGCAGAGCUCAACGCAGCGUGGCAACGUGGCUGUGGCUAGACUGCCUCUCUGGAUUCCUCAUCACUCAGCUGGGCAUCUCUGAGGGAAAUGCC [A50G A67G A79C G114A A124U A138G] | 0.6
UACGUAGGUGGUUUUCCCCUGAUAGUGCUAAGGGGGCCUGGAAGUUUGGGCUAGGCAGAGCCCAACACAGCGUGGCAAAGUGGCUGUGGCUAGACUGCCUCUCUGGAUUCCUCGUCACUCAGCAGGGCAUCUCUGAGAGAAAUGCC [A50G G53A U62C] | 0.04
UACGUAGGUGGUUUUCCCCUGAUAGUGCUAAGGGGGCCUGGAAGUUUGGGCUGGGCAGAGCUCAACACAGCGUGGCAAAGUGGCUGUAGCUAGACUGCCUCUCUGGACUCCUCGUCACUCAGCAGGGCAUCUCUGAGAGAGAUGCC [A50G G88A U108C A141G] | 0
UACGUAGGUGGUUUUCCCCUGAUAGUGCUAAGGGGGCCUGGAAGUUUGGGCUGGGCAGAGCUCAACACAGCGUGGCAAAGUGGCUGUGGCUAGACUGCCUCUCUGGAUUCCUCGUCGCUCAGCAGGGCAUCUCUGAGAGAAAAGCC [A50G A117G U143A] | 0.97
UACGUAGGUGGUUUUCCCCUGAUAGUGCUAAGGGGGCCUGGAAGUUUGGGCUGGGCAGAGCUCAACACGGCGUGGCAAAGUGGCUGUGGUUAGACUGCCUCUCUGGAUUCCCCGUCACUCAGCAGGGCAUCUCUGAGAGAAAUGCC [A50G A69G C90U U112C] | 0.03
UACGUAGGUGGUUUUCCCCUGAUAGUGCUAAGGGGGCCUGGAAGUUUGGGCUGGGCAGAGCUCAACACAGCGUGGCAAAGUGGCUGUGGCUAGACUGCCUCUCUGGAUUCCUUGUCACUCAGCAGGGCAUCUCUGAGGGAAAUGCC [A50G C113U A138G] | 1.06
UACGUAGGUGGUUUUCCCCUGAUAGUGCUAAGGGGGCCUGGAAGUUUGGGCUGGGCAGAGCUCAACACAGCGUGGCAAAGUGGCUGUGGGUACACUGCCUCUCUGGAUUCCUCGUCACUCAGCAGGGCACCUCUGAGAGAAAUGCC [A50G C90G G93C U130C] | 0
UACGUAGGUGGUUUUCCCCUGAUAGUGCUAAGGGGGCCUGGAAGUUUGGGCUGGGCAGAGCUCAACACAGCGUGGUAAAGUGGCUGUGGCUAGACUGCCUCUCUGGAUUCCUCGUCACUCAGCAGGGCAUCUCUGAGAGAAGUGCC [A50G C76U A142G] | 1.18
UACGUAGGUGGUUUUCCCCUGAUAGUGCUAAGGGGGCCUGGAAGUUUGGGCUGAGCAGAGCUCAACACAGAGUGGCAAAGUGGCUGUGGCUAGACUGCCUCUCUGGAUUCCUCGUCACUCAGCAGGGCAUCUCUGAGAGAAAUGCC [A50G G54A C71A] | 0.06
UACGUAGGUGGUUUUCCCCUGAUAGUGCUAAGGGGGCCUGGAAGUUUGGGCUGGGCAGAGCUCAACACAGCGUGGCAAAGUGGCUGUGGCUAGACUGCCUUUCUGGAUUCCUCGUCACUCAGCAGGGCAUCUCUGAGGGAAAUGCC [A50G C101U A138G] | 1.29
UACGUAGGUGGUUUUCCCCUGAUAGUGCUAAGGGGGCCUGGAAGUUUGGGCUGGGCAGAGCUCAUCACAGCGUGGCAAAGUGGCUGUGGCUAGACUGCCUCUCUGGAUUCCCCGUCACUCAGCAGGGCAUCUCUGAGAGAAGUGCC [A50G A65U U112C A142G] | 0.26
UACGUAGGUGGUUUUCCCCUGAUAGUGCUAAGGGGGCCUGGAAGUUUGGGCUGAGCAGAGCUCAACACAGCGUGGCAAAGUGGAUGUGGCUAGACUGCCUCUCUGGAUUCCUCGUCACUCAGCAGGGCAUCUCUGAGAGAAAUGCC [A50G G54A C84A] | 0.02
UACGUAGGUGGUUUUCCCCUGAUAGUGCUAAGGGGGCCUGGAAGUUUGGGCUGGGCAGAGCUCAACAUUGCGUGGCAAAGUGGCUGUGGCUAGACUGCCUCUCUGGAUUCCUCGUCACUCAGCAGGGCAUCUCUGAGAGAAAUGCC [A50G C68U A69U] | 0.04
UACGUAGGUGGUUUUCCCCUGAUAGUGCUAAGGGGGCCUGGAAGUUUGGGCUGGGCAGAGCUCAACACAGCGUGGCUAAGUGGCUGUGGCUAGACUGCCUCUCUGGAUUCCUCGUCACUCAGCAGGGCAUCCCUGAGAGAAAUGCC [A50G A77U U132C] | 1
UACGUAGGUGGUUUUCCCCUGAUAGUGCUAAGGGGGCCUGGAAGUUUGGGCUGGGCAGAGCUCAACACAGCGUGGCAAAGUGGCUGUGGCUAGACUGCCUCUCUGGAUUCCUCGUCACUCAGCUGGGCAUCCCUGAGAGAAAUGCC [A50G A124U U132C] | 1.34
UACGUAGGUGGUUUUCCCCUGAUAGUGCUAAGGGGGCCUGGAAGUUUGGGCUGGGCAGAGCUCAACACAGCGUGGCAAAGUGGCUGUGGCUAGACUGCCUCUCUGGAUUCCUCGUCACUUAGCAGGGCAUCUCUGGGAGAGAUGCC [A50G C120U A136G A141G] | 1.35
UACGUAGGUGGUUUUCCCCUGAUAGUGCUAAGGGGGCCUGGAAGUUUGGGCUGGGCAGAGCUCAACUCAGCGUGGCAAAGUGGCUGUGGCUAGACUGCCUCUCUGGAUUCCUCGUCACUCAGCAGGGCAUCUCUGAGAGAAACGCC [A50G A67U U143C] | 0.02

Variant | self-cleavage
UACGUAGGUGGUUUUCCCCUGAUAGUGCUAAGGGGGCCUGGAAGUUUGGGCUGGGCAGAGCUCGACACAGCGUGGCAAAGUGGCUGUGGCUAGACUGCCUCUCUGGAUUCCUCGUCACUCAGCAGGGCAUCUCUGGGAGAAAUGCC [A50G A64G A136G] | 0
UACGUAGGUGGUUUUCCCCUGAUAGUGCUAAGGGGGCCUGGAAGUUUGGGCUGGGCAGAGCUCAACACAGCGUGGCAAGGUGGCUGUGGCUAGACUGCCUCUCUGGAUUCCUCGUCACUCAGCAGGGCGUCUCUGAGAGAAAUACC [A50G A79G A129G G144A] | 0
UACGUAGGUGGUUUUCCCCUGAUAGUGCUAAGGGGGCCUGGAAGUUUGGGCUGGGCAGAGCUCAACACAGCGUGGCGAAGUGGCUGUGGCUAGACUGCCUCUCUGGAUUCCUCGUCACUCAGCGGGGCGUCUCUGAGAGAAAUGCC [A50G A77G A124G A129G] | 2.3
UACGUAGGUGGUUUUCCCCUGAUAGUGCUAAGGGGGCCUGGAAGUUUGGGCUGGGCAGAGCUCAACACAGCGUGGCAGAGUGGCUGUGGCUAGACUGCCUCUCUGGAAUCCUCGUCACUCAGCAGGGCAUCCCUGAGAGAAAUGCC [A50G A78G U108A U132C] | 0.73
UACGUAGGUGGUUUUCCCCUGAUAGUGCUAAGGGGGCCUGGAAGUUUGGGCUGGGCAGAGCUCAAUACAGCGUGGCAAAGUAGCUGUGGCUAGACUGCCUCUCUGGAUUCCUCGUCACCCAGCAGGGCAUCUCUGAGAGAAAUGCC [A50G C66U G82A U119C] | 0
UACGUAGGUGGUUUUCCCCUGAUAGUGCUAAGGGGGCCUGGAAGUUUGGGCUUGGCAGAGCUCAACACAGCGUGGCAAAGUGGCUGUGGCUAGACUGCCUCUCUGGAUUCCUCGUCACUCUGCAGGGCAUCUCUGAGAGAAAUGCC [A50G G53U A121U] | 0.64
UACGUAGGUGGUUUUCCCCUGAUAGUGCUAAGGGGGCCUGGAAGUUUGGGCUGGGCAGAGCUCAUCACAGCGUGGCAAAGUGGCUGUGGCUAGACUGCCUCUCUGGAUUCCUCGUCGCUCAGCAGGGCAUCCCUGAGAGAAAUGCC [A50G A65U A117G U132C] | 0.92
UACGUAGGUGGUUUUCCCCUGAUAGUGCUAAGGGGGCCUGGAAGUUUGGGCUGGGCAGAGCUCAACACAGCGUGGCAAAAUGGCUGUGGCUAGACUGCCUCUCUGGAUUCCUCGUCACUCAGCAGGGCAUCUCUGAGAGAAGUGCC [A50G G80A A142G] | 1.07
UACGUAGGUGGUUUUCCCCUGAUAGUGCUAAGGGGGCCUGGAAGUUUGGGCUGGGCAGAGCUCAACACAGCGUGGCAAAGUGGCUGUGGCUAGACUGCCUCUCUGGGUUCCUCGUCACUCAGCAGGGCUUCUCUGAGAGAAAUGCC [A50G A107G A129U] | 0.92
UACGUAGGUGGUUUUCCCCUGAUAGUGCUAAGGGGGCCUGGAAGUUUGGGCUGGGCAGAGCUCAACACAGCGUGGCAAAGUGGCUGUGGCUAGACUGCCUCUCUGGAUUCCUCGUCACUCUGCAGGGCAUCUCUGAGGGAAAUGCC [A50G A121U A138G] | 0.61
UACGUAGGUGGUUUUCCCCUGAUAGUGCUAAGGGGGCCUGGAAGUUUGGGCUGGGCAGAGCUCAGCACAGCGUGGCAAAGUGGCUGUGGCCAGACUGCCUCUCUGGAUUCCUCGUCACUCAGCAGGGCAUCUCUGAGAGAAAUGCC [A50G A65G U91C] | 0
UACGUAGGUGGUUUUCCCCUGAUAGUGCUAAGGGGGCCUGGAAGUUUGGGCUGGGCAGAGCUCAACAUAGCGUGGCAAAGUGGCUGUGGCUAGACUGCCUCUCUGGGUUCCUCGUCACUCGGCAGGGCAUCUCUGAGAGAAAUGCC [A50G C68U A107G A121G] | 0
UACGUAGGUGGUUUUCCCCUGAUAGUGCUAAGGGGGCCUGGAAGUUUGGGCUGGGCAGAGCUCAACACAGCGUGGCAAAGUGGCUGUGGCUAGACUGCCUCUCUGGAUUCCUCGUCUCUCAGCAGGGCAUCUCUGAGAGAAGUGCC [A50G A117U A142G] | 0.64
UACGUAGGUGGUUUUCCCCUGAUAGUGCUAAGGGGGCCUGGAAGUUUGGGCUGGGUAGAGCUCAACACAGCGUGGCAAAGUGGCUGUGGCUAGACUGCCUCUCUGGAUUCCUCGUCACUCAGCAGGGCAUCUCUGAGAGAAGUGCC [A50G C56U A142G] | 0.1
UACGUAGGUGGUUUUCCCCUGAUAGUGCUAAGGGGGCCUGGAAGUUUGGGCUGGGCAGAGCUCAGCACAGCGUGGCAAAGUGGCUGUGGCUAGACUGCCUCUCUGGAUUCCUCGUCACCCAGCAGGGCAUCUCUGAGAGAAAUGCC [A50G A65G U119C] | 0
UACGUAGGUGGUUUUCCCCUGAUAGUGCUAAGGGGGCCUGGAAGUUUGGGCUGGGCAGAGCUCAACACAGCGUGGCAAAGUGGCUGUGACUAGACUGCCUCUCUGGAUUCCUCGUCACUCAGCAGGGCAUCUCUGAGAGUAAUGCC [A50G G89A A140U] | 0.02
UACGUAGGUGGUUUUCCCCUGAUAGUGCUAAGGGGGCCUGGAAGUUUGGGCUGGGCAGAGCUCAACACAGCAUGGCAAAGUGGCUGUGGCUAGACUGCCUCUCUGGAUUCCUCGUCACUCAGCUGGGCAUCUCUGAGAGAGAUGCC [A50G G72A A124U A141G] | 0.97
UACGUAGGUGGUUUUCCCCUGAUAGUGCUAAGGGGGCCUGGAAGUUUGGGCUGGGCAGAGCUCAACACAGCGUGGCAAAGUGGCUGUGGCUAGACUGCCUCUAUGGAUUCCUCGUCACUCAGCAGGGCAUCUCUGAGAGAGAUGCC [A50G C103A A141G] | 0.92
UACGUAGGUGGUUUUCCCCUGAUAGUGCUAAGGGGGCCUGGAAGUUUGGGCUGGGCAGAGCUCAACACAGCGUGGCAAAGUGGCUGUGGCUAGACUGCCUCUCUGGAUUCCUCGUCACUCAGCAGGGCAUCUCUGAGAGGGAUGCC [A50G A140G A141G] | 0.92
